Results taken from PubChem BioAssay AID1347043 (National Center for Advancing Translational Sciences (NCATS), 2019).
Where “and” joins values, the source holds several entries; their conditions need not be identical. Identical values can stand only once. About 1,900 (2.5%) of roughly 76,000 compounds were called active. Inconclusive means that the source gave no clear call. Such entries were picked first, then a sample of the others. Calls come from the whole dose curve; as a rule, active = well fitted inhibition curve with a large enough effect; inconclusive = small, poorly fitted or top-dose-only effect; inactive = flat fitted curve, though single readings scatter. A potency beside an inconclusive call is a rough fit, not a confirmed value.

The compounds below were run against Luciferin 4-monooxygenase (Photinus pyralis) (UniProt P08659) (assay: Firefly luciferase inhibition profiling of diverse chemical library using quantitative high-throughput screening). Details: purified P. pyralis luciferase, luminescence, biochemical; series mostly up to 115 µM.
UniProt P08659, sequence (P08659 whole entry, looked up): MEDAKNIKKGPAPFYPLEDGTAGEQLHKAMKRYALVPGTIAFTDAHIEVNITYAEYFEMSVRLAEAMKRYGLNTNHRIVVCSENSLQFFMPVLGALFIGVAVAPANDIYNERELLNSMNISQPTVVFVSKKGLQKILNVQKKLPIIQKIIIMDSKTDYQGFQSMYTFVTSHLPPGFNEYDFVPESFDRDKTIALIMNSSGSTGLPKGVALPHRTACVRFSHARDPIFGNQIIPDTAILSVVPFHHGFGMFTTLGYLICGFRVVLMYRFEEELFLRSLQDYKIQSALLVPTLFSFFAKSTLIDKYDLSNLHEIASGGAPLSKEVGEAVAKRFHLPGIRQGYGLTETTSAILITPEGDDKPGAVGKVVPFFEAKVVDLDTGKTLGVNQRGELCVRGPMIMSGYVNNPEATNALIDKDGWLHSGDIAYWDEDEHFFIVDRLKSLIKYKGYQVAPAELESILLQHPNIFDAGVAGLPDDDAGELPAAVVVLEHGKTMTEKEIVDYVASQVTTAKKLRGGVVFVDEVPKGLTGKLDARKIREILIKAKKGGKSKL
Procedure, shortened: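 Inhibitors were tested against purified firefly luciferase in a biochemical, low-substrate format (both substrates at 10uM) and luminescence measured with a CCD imager.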
Note: nearly all actives have a fitted effect of over 65% in size.
Potency is the fitted concentration of half-maximal effect; tags give direction and shape of the fitted curve.

Structure (SMILES) | Potency
Cc1ccc(C2=NC3(CCN(C(=O)c4ccsc4)CC3)ON2)cc1 | active: 39.8 µM
c1cnc2nc(-c3c[nH]c4ccccc34)[nH]c2c1 | active: 44.7 µM
COCCOC1CCN(C(=O)c2ccc3[nH]ccc3c2)CC1 | inconclusive: 39.8 µM [inhibitor, partial curve]
COc1ccc(C(=O)N[C@@H]2CCC[C@@H]2C(=O)NCc2ccc(C)cc2)cn1 | inactive
CCn1nc(-c2cccc(-c3ccnn3C)c2)nc1N(C)C | inactive
O=C(c1ccc2c(c1)OCO2)N1CCC(Cc2nc(-c3ccccc3)no2)CC1 | inconclusive: 35.5 µM [inhibitor, partial curve]
CCOc1ccc(C(=O)N2CCC3(CC2)CN(C2CCC2)CC3COC)cc1 (stereo not drawn) | inactive
CNC(=O)[C@@H](c1ccccc1)N1CCC[C@H]1C(=O)N[C@@H](CO)CC(C)C | inactive
COc1ccccc1N1CCN(C(=O)CCc2conc2-c2ccc(C)cc2)CC1 | inconclusive: 44.7 µM [inhibitor, partial curve, poor fit]
CCC1(N2CCN(C(=O)c3cc(F)ccc3Cl)CC2)CCN(C(=O)NC)C1 (stereo not drawn) | inconclusive: 50.1 µM [inhibitor, partial curve]
CN(C)C[C@@H]1CN(Cc2ccccn2)C[C@H]1NS(=O)(=O)c1ccccc1F | inactive
COc1ccc2cc(C(=O)N3CCC4(CC3)CC(O)CCO4)[nH]c2c1 (stereo not drawn) | inconclusive: 44.7 µM [inhibitor, partial curve]
Cn1c2c(c3cc(F)ccc31)CN(C(=O)Nc1ccccc1)CC2 | inconclusive: 39.8 µM [inhibitor, partial curve]
COc1ccc(-c2noc([C@@H]3CCCN3C(=O)c3cc(F)cc(F)c3)n2)cc1OC | inactive
Cc1ncoc1C(=O)N1CC(Oc2ccc(-c3nc(-c4ccccc4)no3)cc2)C1 | inconclusive: 17.8 µM [inhibitor, full curve]
O=C(NCc1ccc(F)cc1)c1cc(Br)cn2ccnc12 | inconclusive: 20 µM [inhibitor, full curve] and inconclusive: 12.6 µM [inhibitor, full curve]
Cc1ccc(-c2ncc(C(=O)NCCC3=CCCCC3)c(-c3ccncc3)n2)cc1 | inconclusive: 44.7 µM [inhibitor, partial curve]
COc1ccc(-c2noc(-c3ccc(N4CCCOCC4)nc3)n2)cc1 | inconclusive: 4.47 µM [inhibitor, full curve]
CCc1ccc(CNC(=O)c2noc(-c3ccc4c(c3)OCO4)n2)cc1 | inconclusive: 31.6 µM [inhibitor, full curve]
COc1cccc(NC(=O)c2cnc3n2CCN(Cc2ccccc2)CC3)c1 | inconclusive: 44.7 µM [inhibitor, partial curve]
CCN(CC)CC[C@H]1CN(C(=O)Cc2ccc(OC)cc2)CC[C@H]1CC(=O)O | inactive
c1cncc(CNc2cc(-c3cnc4ccccc4n3)c3cc[nH]c3n2)c1 | inconclusive: 20 µM [inhibitor, full curve]
COc1ccccc1-c1[nH]nc2ncc(C(=O)Nc3ccc4[nH]ccc4c3)nc12 | inactive

Structure (SMILES) | Potency
O=C(Nc1ccncn1)[C@@H]1C[C@@H](c2ccc(F)cc2)N(CCOc2ccccc2)C1 | inactive
CN(C)CCNC(=O)c1ccc(-c2ccc(N3CCCCCC3)nc2)cc1 | inconclusive: 50.1 µM [inhibitor, partial curve]
CC(C)(C)NC(=O)N1CCCN(S(=O)(=O)c2ccccc2)CCC(=O)NCC1 | inactive
CC(C)(C)c1ccnc(N[C@H]2CO[C@H]3[C@@H]2OC[C@@H]3NC(=O)c2ccco2)n1 | inconclusive: 112 µM [inhibitor, partial curve, poor fit]
O=C(NC1CCCN(c2cc(-c3ccccc3)[nH]n2)C1)c1c[nH]c2ccccc12 (stereo not drawn) | active: 39.8 µM
CC(C)N1C(=O)CO[C@H](c2ccc(NC(=O)c3ccc(C#N)cc3)cc2)[C@H]1CO | inconclusive: 70.8 µM [inhibitor, full curve]
Cc1ccc(-n2nc3n(c2=O)CCN(C(=O)C(C)(C)C)C3)cc1 | inconclusive: 44.7 µM [inhibitor, partial curve]
CCc1cccc(NC(=O)C2CCN(C(=O)c3nnn4c3COC(c3ccc(C)cc3)C4)CC2)c1 (stereo not drawn) | active: 35.5 µM
CNC(=O)[C@@H]1C[C@H](n2cc(CN(C)C(=O)Nc3ccc(C)c(C)c3)nn2)CN1 | inconclusive: 70.8 µM [inhibitor, single point]
CC1=NOC2(CCN([S+](=O)([O-])c3cccs3)C2)C1 (stereo not drawn) | inactive
C[S+](=O)([O-])Nc1cccc(Nc2cnc3ccc(-c4ccccc4)nn23)c1 | inconclusive: 79.4 µM [inhibitor, partial curve]
COCC(=O)NC1CCC12CCN(C(=O)NCc1ccc(C)cc1)CC2 (stereo not drawn) | inactive
COC(=O)[C@@H]1Cc2c([nH]c3ccccc23)[C@H]2C[C@H](NCCO)C[C@@H](c3ccccc3)N21 | inconclusive: 112 µM [inhibitor, partial curve, poor fit]
Cc1ccccc1OCC1CN(Cc2c[nH]c3ccccc23)C(=O)c2c(ccnc2-c2ccc(OCC(=O)O)cc2)O1 (stereo not drawn) | inconclusive: 50.1 µM [inhibitor, partial curve]
CCc1cccc(NC(=O)C2Cn3cccc3C(=O)N2C)c1 (stereo not drawn) | inactive
Cn1cncc1C(=O)NC1CCN(c2ccc(=O)n(C)n2)CC1 | inactive
COc1ccc(CN2CCN(c3ccnc(C)n3)CC2CCO)c(C)c1C (stereo not drawn) | inactive
CCCNC(=O)NC[C@@H]1C=C(C)[C@H](Cc2nc3ccc(OC)cc3[nH]2)C[C@H]1C(C)C | inactive
CCOC(=O)C1(Cc2ccccc2F)CCCN(C(=O)c2cccc(-n3cccn3)c2)C1 (stereo not drawn) | inconclusive: 56.2 µM [inhibitor, partial curve, poor fit]
CC(=O)Nc1ccc(CN2C[C@H](O)C[C@H]2c2nc(-c3ccc(OC(F)(F)F)cc3)no2)cc1 | inconclusive: 44.7 µM [inhibitor, full curve, poor fit]
COc1ccc(CN2CCOC[C@H]2c2ncc(C(C)(C)C)[nH]2)cc1 | inactive
CCc1noc(-c2nc(-c3ccc(OC)cc3)no2)n1 | inconclusive: 10 µM [inhibitor, full curve]
Cc1ncsc1CN1CCC[C@H]1C(=O)N1CCCCCCNC(=O)CC1 | inconclusive: 50.1 µM [inhibitor, partial curve]

Structure (SMILES) | Potency
O=C(NC1CCCCCCC1)C1CCN(C(=O)c2ncn3c2COC(c2ccc(F)cc2)C3)CC1 (stereo not drawn) | inconclusive: 44.7 µM [inhibitor, partial curve]
O=C1C(N2CCN(S(=O)(=O)Cc3cccc(Cl)c3)CC2)CCN1Cc1cccnc1 (stereo not drawn) | inactive
O=C(C1CCCC1)N1CCCC(c2noc(COc3ccccc3)n2)C1 (stereo not drawn) | inconclusive: 31.6 µM [inhibitor, partial curve, poor fit]
Cc1nn(-c2ccc(C(C)(C)C)cc2)c(C)c1[C@@H]1C=C[C@@H](NC(=O)NCc2ccccc2)C1 | inconclusive: 5.62 µM [inhibitor, full curve]
COc1ccc(-c2cc3c(=O)n(CCNC(=O)c4cc(Cl)ccc4F)ccn3n2)cc1 | inconclusive: 0.398 µM [inhibitor, full curve]
COCC1CN(C(C)=O)CC12CCN(C(=O)c1cc3ccccc3[nH]1)CC2 (stereo not drawn) | inconclusive: 5.62 µM [inhibitor, full curve]
COc1ccccc1CNC(=O)[C@H]1C[C@@H](O)[C@H](O)[C@@H]2N=C(Nc3ccc(C)cc3)S[C@@H]21 | inconclusive: 50.1 µM [inhibitor, partial curve]
COCCn1ncc(N2CCC(C(=O)N3CCC(N(C)Cc4cccc(Cl)c4)CC3)C2)cc1=O (stereo not drawn) | inactive
CCN1c2cc(C(=O)Nc3ccc(C)cc3C)ccc2C(=O)N2CCCCCC21 (stereo not drawn) | inactive
Cc1nn2c(c1-c1ccccc1C(C)C)N(C(=O)COc1ccccc1C(N)=O)CCC2 | inactive
CCn1nccc1C(=O)N1CCc2nc3cc(-c4ccccc4Cl)[nH]n3c(=O)c2C1 | inconclusive: 50.1 µM [inhibitor, partial curve]
FC(F)(F)c1ccc2nc([C@H]3CCN(C4CCCCC4)C3)[nH]c2c1 | active: 56.2 µM
CCOC(=O)C1=CN(CC(=O)Nc2ccccc2Cl)S(=O)(=O)N=C1C | inactive
OC[C@@H]1CN(C2CCCCC2)C[C@H]1c1nc(-c2ccncc2)no1 | inconclusive: 50.1 µM [inhibitor, partial curve]
COc1ccc2[nH]c(=O)c(CCC(=O)N3CCN(CC(C)C)CC3)cc2c1 | inactive
O=C(NCC1CCN(c2cc(-c3ccccc3)[nH]n2)CC1)c1n[nH]c2c1CCCC2 | inconclusive: 50.1 µM [inhibitor, partial curve]
CNC(=O)c1cccc(-c2cnc3[nH]cc(CC(=O)NC4CCC4)c3c2)c1 | inconclusive: 79.4 µM [inhibitor, partial curve, poor fit]
O=C(NCc1ccncc1)C1CCN(C(=O)c2ncn3c2COC(c2ccccc2)C3)CC1 (stereo not drawn) | active: 2.82 µM
Cc1ccc(CN2Cc3[nH]cnc3C[C@H]2c2nc(-c3ccc4ccccc4c3)no2)cc1 | active: 63.1 µM
COc1ccccc1CN(C)C1CCc2ccccc21 (stereo not drawn) | inactive
CC(C)C[C@@H]1N[C@H](C(=O)N2CCCC2)Cc2cn(Cc3nccn3C)c3cccc1c23 | inactive
O=C(Cc1cccnc1)N1CCCC(c2nc(CCOc3ccc(F)cc3)no2)C1 (stereo not drawn) | inconclusive: 44.7 µM [inhibitor, partial curve]
